The other results are listed elsewhere or left out. At the low end of the ranking, values are background and their order means little.

The assay deals with SIX1-Q177R homeodomain (UniProt Q15475). Put plainly: universal protein binding microarray. Conditions: Universal all-10-mer PBM (8x60K, AMADID 030236), 300 nM GST-tagged protein, Alexa Fluor 488 anti-GST; buffer, salt, pH and temperature not stated; high values mean tight binding; most listed sequences are background and not binding sites; double strand, one strand shown.
Consider CTTTCACA, for which the binding signal was found to be 0.24 E-score. Regarding AGCCAGGA, the binding signal is -0.0177 E-score. As for CATACTGA, the figure is -0.0158 E-score. Regarding ATGCCCCC, the binding signal was -0.0488 E-score. On to ACCTGGAG, for which the binding signal is 0.222 E-score. As for ACACTGAT, the figure is 0.374 E-score. As for AGCATAGC, the figure is -0.105 E-score.

On to ACCTCAGC, for which the binding signal stood at 0.0283 E-score. The figure for AACCAGTC is -0.242 E-score. As to CAAACATG, the binding signal is -0.181 E-score. The figure for AGTCGGGG is 0.158 E-score; for AATTCCCG it is -0.256 E-score. The figure for CATAACGA is -0.133 E-score; for AAAGGTGA it is -0.0568 E-score; for AACGGATG it is -0.135 E-score. The figure for CTATGATC is -0.0315 E-score; for GACCGTCA it is -0.251 E-score. For the sequence CCGACTCC, the binding signal was 0.159 E-score.

With GACTACTA, the binding signal amounted to 0.0519 E-score. On to AGCTGTTG, for which the binding signal is -0.101 E-score.

For the sequence GAAGTATA, the binding signal is -0.195 E-score. For the sequence CGTATGCC, the binding signal was determined as 0.0278 E-score. As for ACCAAGGA, the figure is -0.0982 E-score; as for ATGGATGG, -0.0475 E-score.

Turning to CTACCGGA, the binding signal was -0.105 E-score. The figure for ATATTCTA is -0.0462 E-score; for ACCGTATC it is 0.135 E-score; for CCGTCTTA it is 0.0204 E-score. The figure for ACGCTACG is 0.0666 E-score; for AAAGTGTA it is 0.36 E-score.

On to GACACTCC, for which the binding signal is 0.434 E-score. Regarding CTTGAATC, the binding signal is -0.076 E-score. The figure for TTACTCAA is -0.0971 E-score; for ACCGCACG it is 0.118 E-score.

Turning to GGATGACC, the binding signal is 0.00064 E-score. As for ACATTTGG, the figure is -0.0151 E-score; as for AACTGGAG, -0.131 E-score; as for GTCCTGAA, -0.0244 E-score. CTCGAGAA: the binding signal was -0.027 E-score. As for ACACCCCC, the figure is 0.487 E-score; as for TCGAGTCA, 0.0194 E-score; as for ATTTTCCA, 0.0628 E-score. The figure for AAACGATG is -0.342 E-score; for GGTTATAC it is 0.118 E-score. Regarding GATGAGCA, the binding signal was determined as 0.0647 E-score. On to CCACCCAG, for which the binding signal was found to be 0.0226 E-score. As for ACGGGACA, the figure is 0.157 E-score; as for ACAGTCCT, -0.234 E-score.

For CAATTGTG, the binding signal was determined as 0.113 E-score. As for CTGCTCCA, the figure is -0.137 E-score. The figure for CGGCGCCA is -0.22 E-score; for GACCAATC it is -0.171 E-score; for ACGCCCCT it is 0.205 E-score. For CGTTGGAC, the binding signal worked out at 0.07 E-score. The figure for AAGGAGTG is 0.226 E-score; for GAACTCAA it is -0.131 E-score. Consider ATACGCTG, for which the binding signal is -0.0646 E-score. As for ACGTTATG, the figure is -0.129 E-score; as for GTGAAAAA, -0.099 E-score; as for CTCGGTCC, -0.0957 E-score. As to AAACATTT, the binding signal was -0.321 E-score. Turning to ATGCCACG, the binding signal is -0.00694 E-score. Take CATCAGAC: the binding signal was determined as 0.0762 E-score. Regarding AATTAATA, the binding signal is -0.23 E-score. The figure for CAAGTTTC is -0.176 E-score; for AAACCAAA it is -0.139 E-score. Regarding CGACTATA, the binding signal is 0.0452 E-score.

Take AGAATGGG: the binding signal was -0.115 E-score.

For CGATAACG, the binding signal was -0.0226 E-score. On to ATGCGGTC, for which the binding signal is -0.159 E-score. For the sequence GCGGCGCC, the binding signal was found to be 0.00679 E-score. As for GGGATACC, the figure is 0.341 E-score. As for CGACATAC, the figure is 0.00625 E-score. The figure for AATACTTG is -0.045 E-score; for AGAATGTC it is -0.29 E-score; for CGCTCGTA it is 0.0568 E-score.

Consider ACTTCTTC, for which the binding signal was -0.137 E-score.

In the case of ACAGGGTG, the binding signal came out at 0.222 E-score. The figure for TAAATGTA is -0.219 E-score; for GTTGATTA it is 0.0632 E-score; for CGCCGCAA it is -0.121 E-score. The figure for ACAATGCC is -0.0768 E-score. As for AGTAGCTC, the figure is -0.119 E-score; as for GGCTAAGA, -0.132 E-score. As for CATAGGTA, the binding signal is 0.00382 E-score. As for CTAAGGGA, the figure is -0.0103 E-score.

For AAATATAT, the binding signal is 0.0682 E-score.

Consider GATCGTGA, for which the binding signal is -0.0488 E-score. For the sequence GCACAGTA, the binding signal is -0.172 E-score. As for ACTCCTCT, the figure is 0.174 E-score. The figure for CATAAATG is -0.0598 E-score; for GAGAAAAA it is -0.339 E-score; for AAGCGCGC it is -0.126 E-score.

ACTGTCCT: the binding signal is -0.04 E-score. On to ACATTAGG, for which the binding signal came to 0.0302 E-score.

For AGACCGGA, the binding signal is -0.0238 E-score.

For AAAAGTGA, the binding signal was -0.228 E-score. The figure for CCAATTGA is -0.208 E-score; for CCCTACGA it is 0.0823 E-score. The figure for GACTCTAC is 0.0903 E-score; for GCCATGGA it is 0.0191 E-score; for AATCTAGA it is -0.121 E-score. As to AGCCGCCA, the binding signal is -0.0871 E-score. Consider GATGGAGC, for which the binding signal was -0.00109 E-score. As for GGATCAAA, the figure is 0.0994 E-score; as for GTCTGTAA, 0.00823 E-score.

On to ACCGCTTC, for which the binding signal is -0.0987 E-score. As for GTAAGTAA, the figure is -0.104 E-score; as for GTAGGGAC, -0.0649 E-score; as for ATTTTCGG, -0.111 E-score. As for TTACGAAA, the figure is -0.226 E-score; as for CAATTATG, -0.171 E-score. The figure for GATTGCTA is -0.0859 E-score; for AACCTGGC it is -0.00605 E-score. Take ACAAAAGG: the binding signal is -0.151 E-score.

As for AGAAATAG, the binding signal is -0.184 E-score. As for CATCAAGC, the binding signal is -0.247 E-score. In the case of CCCGTAGC, the binding signal stood at 0.0179 E-score.

For the sequence CTCCTACA, the binding signal came to 0.243 E-score. CAGCGTGG: the binding signal is -0.0101 E-score. The figure for ACAACCGT is -0.091 E-score; for GATCAGAA it is -0.132 E-score; for CCGGCACG it is 0.0633 E-score.

AGCCCACA: the binding signal is -0.0829 E-score.

Take AACTGTTA: the binding signal is -0.231 E-score.

ACGTTAAG: the binding signal was -0.196 E-score. As to TCTTCGCA, the binding signal was -0.101 E-score. The figure for CGACCGTC is -0.163 E-score; for AAGGACGC it is -0.059 E-score; for CACGGTGA it is 0.221 E-score.

As for AACTGAAT, the binding signal is -0.0846 E-score. As for CGTATACG, the figure is 0.153 E-score; as for CCTCGTCC, -0.0782 E-score.

Take CTATCGGC: the binding signal is -0.164 E-score. The figure for GTAATCCA is -0.00487 E-score; for GAGTCAAC it is 0.079 E-score.

With GACCCTCA, the binding signal is -0.078 E-score. As to AGACGCCT, the binding signal is -0.0615 E-score. The figure for CTGATCAG is -0.196 E-score; for GCTATACC it is 0.169 E-score; for AGCGCCCA it is -0.172 E-score. Take ACATATTG: the binding signal was -0.124 E-score. As for ATTGATAA, the figure is -0.199 E-score; as for AGGACCTC, -0.04 E-score; as for CTATGTCC, -0.149 E-score.

ATAGCTTC: the binding signal was -0.273 E-score. Turning to CACTCGAC, the binding signal is 0.211 E-score. As to CTCAAGGA, the binding signal is 0.0283 E-score. For the sequence AAGTCGTG, the binding signal was 0.169 E-score.

Take AACCGCCA: the binding signal was -0.0701 E-score. For the sequence GAAGGATA, the binding signal stood at 0.0385 E-score. With GCGGAGCA, the binding signal was -0.0819 E-score. Consider GAAGAAAC, for which the binding signal was -0.187 E-score.

In the case of CTTCCATC, the binding signal is -0.0574 E-score. As for GCCTGACA, the figure is 0.141 E-score. For the sequence GGGTTGAA, the binding signal came out at 0.0124 E-score.

As for CCCCCCAG, the binding signal came to 0.162 E-score. As for AATATTTC, the figure is -0.199 E-score. Regarding GAAGATTA, the binding signal is -0.0973 E-score.

As to CACGAATC, the binding signal was found to be 0.0544 E-score. As for GGCACGGA, the figure is 0.0118 E-score; as for ATTTTTTC, -0.184 E-score; as for CGGGAAGA, 0.0766 E-score. Take CTTAATGC: the binding signal is -0.216 E-score. With GGAAGGCC, the binding signal is -0.271 E-score.

With CAGCCTCC, the binding signal was -0.337 E-score. For ACCGGGCC, the binding signal was -0.0757 E-score.

With ATTCCTTG, the binding signal is -0.203 E-score. CCTAGGCG: the binding signal is -0.123 E-score. The figure for TCCCAAGA is -0.22 E-score; for GCCTCTTA it is -0.147 E-score. ACCCCTGC: the binding signal is 0.235 E-score. As to GTCTCACA, the binding signal is 0.0951 E-score. As for GAGTTACA, the figure is 0.168 E-score; as for AAGACAGT, 0.0689 E-score; as for CATTTGCG, -0.153 E-score. As for GTGCGAAC, the figure is -0.00604 E-score. ATACTAGC: the binding signal turned out to be 0.00859 E-score. The figure for AAGATCGG is -0.118 E-score; for ATGTCACG it is 0.00899 E-score; for GCGCGTCC it is -0.0923 E-score. The figure for CTAATGCA is 0.000465 E-score.

As for ACGCTCTC, the binding signal is -0.0979 E-score.

Consider AGGTTCAG, for which the binding signal is 0.03 E-score. The figure for CGCAACAC is 0.366 E-score. Regarding AACCAGCT, the binding signal turned out to be 0.0377 E-score.

On to ACCATGAG, for which the binding signal is 0.0359 E-score. The figure for CCGATATA is 0.0806 E-score; for TACCGCCA it is -0.0258 E-score. In the case of ACGATACG, the binding signal was determined as 0.0271 E-score. The figure for CGTACCTC is -0.165 E-score. As for AGATTCCT, the figure is -0.138 E-score. For ATGGAGAG, the binding signal was -0.131 E-score. On to GGCTGCCC, for which the binding signal was -0.236 E-score. TGAGCAAA: the binding signal was -0.22 E-score. As for GCCGCGGA, the figure is -0.0545 E-score; as for CTGGCCGA, -0.19 E-score; as for GTTATGGA, -0.0956 E-score. On to CGTGCAAA, for which the binding signal is 0.062 E-score. As to ACATGGCT, the binding signal is -0.158 E-score. As for CGAAGGAA, the figure is -0.0842 E-score. As for AAGTTGAG, the figure is -0.153 E-score; as for CACCTCAG, 0.26 E-score. The figure for CCAGGTAA is 0.043 E-score; for CGAGAACC it is -0.0476 E-score.

CGCCCAGA: the binding signal is -0.137 E-score. AATTATGG: the binding signal is -0.136 E-score. On to GATCAACA, for which the binding signal is 0.206 E-score.

On to ATCCTCAT, for which the binding signal was determined as 0.0337 E-score. The figure for AACTCGCA is -0.17 E-score; for ATGTCTCG it is -0.0871 E-score. As for CACTGTAA, the figure is 0.137 E-score. As for CATAGTTC, the figure is -0.258 E-score; as for AGACACAA, 0.105 E-score; as for AGTCGGCC, -0.136 E-score. On to GCTGAGGA, for which the binding signal is -0.158 E-score.

Regarding GGCCAGTA, the binding signal is -0.255 E-score. As for GGCTTTAA, the figure is -0.271 E-score. Take ACACCTTC: the binding signal amounted to 0.46 E-score.

The values above are taken from publication PMC10668032.
